Results on 100 molecules are retold here after article PMC6919601, “Identification of Plasmodium dipeptidyl aminopeptidase allosteric inhibitors by high throughput screening” (PLoS ONE, 2019).

“And” between values parts separate entries of the source, which are not always exact repeats. Identical values can stand only once. Hit rate of the full screen: of about 110,000 compounds, about 230 (0.21%) showed an effect of 50% or more. The list shows a part of the results.
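Further: 30 min substrate incubation versus DMSO and 10 µM JCP410 controls.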

The target of this test is DPAP1 (Plasmodium falciparum, UniProt Q8IIJ9). The experiment in a line: primary screen, percent inhibition; read by cleavage of a fluorogenic dipeptide substrate; higher = more effect of the substance. On the set-up: species or system P. falciparum D10 trophozoite lysates; single well.
Chain of DPAP1 (Q8IIJ9 whole entry, looked up): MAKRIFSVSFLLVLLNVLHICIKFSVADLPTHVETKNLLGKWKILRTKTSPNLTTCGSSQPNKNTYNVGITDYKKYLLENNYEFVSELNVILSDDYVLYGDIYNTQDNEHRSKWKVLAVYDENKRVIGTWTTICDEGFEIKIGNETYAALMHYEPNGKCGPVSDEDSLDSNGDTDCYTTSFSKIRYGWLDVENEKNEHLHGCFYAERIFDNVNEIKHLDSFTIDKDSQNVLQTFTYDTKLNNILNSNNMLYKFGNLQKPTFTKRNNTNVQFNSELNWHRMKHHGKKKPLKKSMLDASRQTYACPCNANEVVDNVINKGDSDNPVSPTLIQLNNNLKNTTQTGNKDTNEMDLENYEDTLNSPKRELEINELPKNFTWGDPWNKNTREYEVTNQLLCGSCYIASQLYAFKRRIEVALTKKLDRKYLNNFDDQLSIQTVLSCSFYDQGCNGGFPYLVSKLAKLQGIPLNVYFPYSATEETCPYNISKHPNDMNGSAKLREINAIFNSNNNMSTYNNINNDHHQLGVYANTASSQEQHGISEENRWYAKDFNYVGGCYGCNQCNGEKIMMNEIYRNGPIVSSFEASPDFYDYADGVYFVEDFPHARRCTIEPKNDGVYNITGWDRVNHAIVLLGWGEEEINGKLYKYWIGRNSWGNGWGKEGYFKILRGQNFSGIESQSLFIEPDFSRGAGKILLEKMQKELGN
Turning to `O=C1NC(=S)N(c2ccc(Cl)cc2)C(=O)/C1=C/c1c[nH]c2ccccc12`, the “% Inhibition @ 10 uM” value came to 3.76%. Under `C(=C\c1nn2c(-c3ccncc3)nnc2s1)/c1ccccc1` stands 6.01%; under `CNC(=O)CN(c1ccc(F)cc1)S(=O)(=O)c1ccc2c(c1)OCCO2`, 1.65%; under `Cc1ccc(OCCCCN2CCCC2)cc1`, 5.35%. With `COc1cccc(C(=O)Nc2cc(C)c(C)cc2O)c1`, the “% Inhibition @ 10 uM” value is 4% and -5.13%.

For the molecule `Cc1ccc(NC(=O)CN(c2ccc(F)cc2)S(C)(=O)=O)c(C)c1`, the “% Inhibition @ 10 uM” value is recorded as -1.43%.

Take `N#CCCSc1nccn1Cc1ccccc1`: the “% Inhibition @ 10 uM” value is -0.239%. Turning to `COc1cccc(C(=O)NC(C)c2cc3c(cc2Cl)OCCO3)c1` (stereo not shown), the “% Inhibition @ 10 uM” value is recorded as -3.09%.

As for `Cc1ccc(C)c(CN2CCN(c3ccccc3)CC2)c1`, the “% Inhibition @ 10 uM” value is 6.25%. Under `COc1ccccc1CN1CCN(Cc2ccc3ccccc3c2)CC1` stands 16.7%; under `CC1CCN(C(=O)c2ccc(COc3cccc4ccccc34)cc2)CC1`, 3.72%.

For the molecule `Cc1nc2ccc(S(=O)(=O)NC(CC(C)C)C(=O)N3CC=C(c4ccccc4)CC3)cc2s1` (stereo not shown), the “% Inhibition @ 10 uM” value is given as -4.97%. Under `CC(=O)C1=C(O)C(=O)N(CO)C1c1ccccc1` (stereo not shown) stands -9.88%; under `O=C1c2ccc(Br)cc2C(=O)N1c1ccc(Cl)cn1`, -4.31%.

With `CCC1CCCCN1CCCNC(=O)c1cc2c(O)nc3ccccc3c2n1C` (stereo not shown), the “% Inhibition @ 10 uM” value is listed as 3.63%. On to `CN(CC(=O)O)S(=O)(=O)c1ccc2nc(O)c(O)nc2c1`, for which the “% Inhibition @ 10 uM” value is on record as -0.458%.

In the case of `O=C(O)c1ccc(CNCCCc2ccccc2)s1`, the “% Inhibition @ 10 uM” value is recorded as -6.01%. Under `Cc1ccc(NC(=O)c2ccc(Cl)c(Cl)c2)nc1` stands -2.65%. Under `CC1=C(c2ccc(C)c(C)c2)S(=O)(=O)N=C1N(Cc1ccccc1)C(C)C` stands 6.91%. Under `Cc1ccc2nc(Cl)c(C3CC(c4cccs4)=NN3S(C)(=O)=O)cc2c1` (stereo not shown) stands -5.49%; under `COc1ccc(SCCc2ccncc2)cc1`, 4.98%.

As to `CC(=O)Nc1cccc(NC(=O)/C=C/c2ccccc2)c1`, the “% Inhibition @ 10 uM” value is reported as 1.63%. As to `CCOC(=O)C1=C(CS(=O)(=O)c2ccccc2)NC(=O)NC1c1ccc(O)c(OC)c1` (stereo not shown), the “% Inhibition @ 10 uM” value amounted to 1.24%. Under `CC(C)(C)NC(=O)C(=O)NCc1ccc(Cl)cc1` stands -4.52%; under `O=C(c1cccnc1)N1CCN(Cc2c[nH]c3ccccc23)CC1`, -3.21%; under `COc1ccc(CNC(=O)Nc2cn(C)c(=O)c3ccccc23)cc1`, 0.974%.

As to `Cc1ccc2nc(N(CCCN(C)C)C(=O)C3=COCCO3)sc2c1`, the “% Inhibition @ 10 uM” value is 7.22%. Under `CCOc1cc(C(=O)O/N=C(\N)c2ccccn2)cc(OCC)c1OCC` stands -4.84%. `COc1cc(C(=O)NCc2nnc(SCC(=O)NCc3ccc(F)cc3)o2)cc(OC)c1OC`: the “% Inhibition @ 10 uM” value is 1.85%. Under `Cc1c2cnn(CC(=O)NC3CCCC(C)C3C)c(=O)c2c(C)n1Cc1ccc(Cl)cc1` (stereo not shown) stands -5.81%.

On to `CC(=O)N1CCN(C2CCSC2)CC1` (stereo not shown), for which the “% Inhibition @ 10 uM” value was found to be 4.54%. `CCOC(=O)N1CCN(C(=O)CSc2nnc(Cc3ccccc3)o2)CC1`: the “% Inhibition @ 10 uM” value was 2.42%. For the molecule `COc1ccc(CNC(=O)c2cc3c(O)nc4ccccc4c3s2)c(OC)c1`, the “% Inhibition @ 10 uM” value is listed as -2.29%. `COc1cc(OC)c(OC)cc1CN1CCN(Cc2cccnc2)CC1`: the “% Inhibition @ 10 uM” value turned out to be 2.3%. Consider `COc1ccc(-n2nc3c(c2NC(=O)COc2ccc4ccccc4c2)CS(=O)(=O)C3)cc1`, for which the “% Inhibition @ 10 uM” value stood at 7.39%. For the molecule `CCCC(=O)Nc1ccc(S(=O)(=O)Nc2cc(OC)nc(OC)n2)cc1`, the “% Inhibition @ 10 uM” value is listed as -3.95%. Under `CCN(Cc1ccccc1)C(=O)C1CCC(C/N=c2/c(N3CCOCC3)c(O)c2=O)CC1` (stereo not shown) stands -0.447%; under `O=C(O)c1ccc(S(=O)(=O)Cc2ccccc2)cc1`, -1.92%. Turning to `O=C(NCCOCC(F)(F)F)c1sc2ccccc2c1Cl`, the “% Inhibition @ 10 uM” value is -6.25%. Under `N=C1/C(=C\c2cccn2CCCOc2ccccc2Cl)C(=O)N=C2SC(N3CCOCC3)=NN12` stands 1.72%; under `COc1ccccc1/C=C1\C(=O)NC(=O)N(c2ccc(Cl)cc2)C1=O`, 1.41%. Under `COc1ccc(CN2CCN(c3cccc(C(F)(F)F)c3)CC2)cc1` stands 1.48%. For the molecule `Cc1ccc(NC(=O)c2ccc([N+](=O)[O-])cc2Cl)cc1Cl`, the “% Inhibition @ 10 uM” value is listed as 0.827%. Under `O=C(NCc1ccc2c(c1)OCO2)c1cnn(-c2ccccc2Cl)c1C1CCNCC1` stands -8.75%; under `COc1ccc2[nH]c(SCC(=O)Nc3c(C)cccc3C)nc2c1`, 1.64%. Under `CCCCNCC(O)COc1cccc(OC)c1` (stereo not shown) stands 2.22%; under `C/N=c1\c(NC(=O)c2ccc3c(c2)OCO3)c(O)oc2ccccc12`, -0.426%. Under `CCN1C=C(C(=O)OC)C(c2ccc(OC)cc2OC)C(C(=O)OC)=C1` stands 1.88%; under `Cc1ccc(NS(=O)(=O)c2cccc(C(=O)Nc3cccc(C(=O)O)c3)c2)cc1`, 3.25%; under `CC(C)NS(=O)(=O)c1cccc2cccnc12`, 3.74%. As to `O=C1N=C(N2CCN(CCO)CC2)S/C1=C\c1ccc(-c2ccccc2)cc1`, the “% Inhibition @ 10 uM” value is 4.57%.

As to `Oc1c2c(nc3nncn13)-c1ccccc1CC21CCCC1`, the “% Inhibition @ 10 uM” value is -2.63%. Under `CC1(C)CC(=O)c2cnc(NC3CCCC3)nc2C1` stands -10.9%; under `Cc1[nH]c2ccccc2c1CCN1C(=O)OC(C)(C)C1(C)O` (stereo not shown), 8.5%.

For the molecule `OC(c1ccccc1)(c1ccc(Br)cc1)C(CN1CCOCC1)c1ccccc1` (stereo not shown), the “% Inhibition @ 10 uM” value is -4.07%. With `COCCCn1c(SCC(=O)NCCc2ccccc2)nc2c(sc3ccccc32)c1=O`, the “% Inhibition @ 10 uM” value amounted to 8.3%. For `COc1cc2c(cc1OC)[C@H]1CN3CCc4cc(OC)c(OC)cc4[C@@H]3CN1CC2`, the “% Inhibition @ 10 uM” value is -2.56%.

In the case of `CC(=O)Nc1nonc1N1C(=N)S/C(=C\c2ccc(-c3ccc(Cl)c(C(F)(F)F)c3)o2)C1=O`, the “% Inhibition @ 10 uM” value turned out to be 3.81%. Under `COc1ccc(S(=O)(=O)N2CCN(c3ccccc3)CC2)c(Cl)c1Cl` stands 2.42%; under `O=C(/C=C/c1ccc(Cl)cc1)NC1CCS(=O)(=O)C1` (stereo not shown), -3.27%. Under `CC1CCN(C(=O)/C(=C\c2ccccc2)NC(=O)c2ccc(Cl)cc2Cl)CC1` stands 5.98%. For the molecule `CCc1c(O)n(-c2ccccc2)c(=S)[nH]c1=O`, the “% Inhibition @ 10 uM” value is given as 0.526%. As for `CCS(=O)(=O)N1CCN(Cc2ccc3c(c2)OCO3)CC1`, the “% Inhibition @ 10 uM” value is -4.18%. Under `CCOCCCNC(=O)c1c(NC(=O)c2cc(=O)c3cc(C)ccc3o2)sc2c1CCCC2` stands -3.24%. In the case of `COc1cc([N+](=O)[O-])cc(CN(CCc2ccccc2)Cc2ccccc2)c1O`, the “% Inhibition @ 10 uM” value is listed as 6.32%. As for `CCOCCCNC(=O)C1CCCN(S(=O)(=O)c2ccc(F)cc2)C1` (stereo not shown), the “% Inhibition @ 10 uM” value is 0.401%. Consider `CC(=O)Nc1cccc(NC(=O)c2cccc(Cl)c2)c1`, for which the “% Inhibition @ 10 uM” value is 3%. Under `CCCC(C)n1nc(O)c2c1NC(=O)CSC2c1ccc(OC(C)C)cc1` (stereo not shown) stands 2.89%; under `CCOc1ccc(C(=O)N2CCc3cc(OC)c(OC)cc3C2COc2ccc(OC)cc2)cc1` (stereo not shown), 2.06%; under `O=C(Nc1ccccc1F)c1ccc(Cl)cc1`, 5.29%. `COc1ccc(CC(=O)Nc2ccc3c(c2)C(=O)N(c2ccccc2)C3=O)cc1`: the “% Inhibition @ 10 uM” value is reported as 3.1%. In the case of `Cc1cc(=O)n2nc(N3CCC(C(=O)NCCCc4ccccc4)CC3)sc2n1`, the “% Inhibition @ 10 uM” value is reported as -7.54%. Consider `COc1ccc(/C=C2\C(=O)NC(=S)N(c3cccc(Cl)c3)C2=O)cc1`, for which the “% Inhibition @ 10 uM” value was 4.52%. Turning to `Cc1c(Cl)cccc1NC(=O)CN(c1ccc2c(c1)OCCO2)S(=O)(=O)c1ccccc1`, the “% Inhibition @ 10 uM” value is on record as 1.19%.

For the molecule `O=C(NC(=S)n1cnc2ccccc21)c1ccco1`, the “% Inhibition @ 10 uM” value is -1.29%. Under `CN(C)S(=O)(=O)N1CC=C(c2ccc(F)cc2)CC1` stands -5.33%; under `COC(=O)c1ccc(CSc2nnc(CNC(=O)COc3ccc(Cl)cc3)o2)o1`, -5.27%. Under `COc1ccc(C(CC(=O)NC2CCCCCC2)N2Cc3ccccc3C2=O)cc1` (stereo not shown) stands -2.01%.

With `COc1ccc(CCNC(=O)C(=O)NCC2CCCO2)cc1` (stereo not shown), the “% Inhibition @ 10 uM” value was -7.47%. In the case of `C=CCOc1ccc(C2c3c(oc4ccc(C)cc4c3=O)C(=O)N2c2ccccn2)cc1OC` (stereo not shown), the “% Inhibition @ 10 uM” value is on record as -5%. Under `COc1ccc(N2C(=O)C3C4C=CC(C4)C3C2=O)c(OC)c1` (stereo not shown) stands 3.05%; under `CCN(Cc1ccccc1)C1CCN(C)CC1`, -0.414%; under `Cn1cc(Br)c(C(=O)N2N=C3CCCCC3C2(O)C(F)(F)F)n1` (stereo not shown), 1.15%. `Cc1ccc(-c2cc(C(F)F)n3ncc(C(=O)N4CCc5ccccc5C4)c3n2)cc1`: the “% Inhibition @ 10 uM” value was found to be 0.778%. Under `O=C(c1ccccc1F)N1CCN(C/C=C/c2ccccc2)CC1` stands -1.98%; under `CC(=O)Nc1ccccc1SCC(=O)Nc1ccc(Cl)cc1Cl`, 1.17%; under `COc1ccc(CC(=O)Nc2cc(Cl)ccc2C(=O)O)cc1`, -3.85%. Take `Cc1cc(OCC(=O)Nc2ccc(S(=O)(=O)N3CCOCC3)cc2)cc(C)c1Cl`: the “% Inhibition @ 10 uM” value was -11.5%.

For the molecule `Cc1ccc2c(Cl)c(C(=O)N3CCCC3)sc2c1`, the “% Inhibition @ 10 uM” value is reported as 5.04%.

On to `CCOC(=O)N1CCN(C(=O)c2c(C)nn(-c3ccc(C)cc3)c2-n2cccc2)CC1`, for which the “% Inhibition @ 10 uM” value is listed as -3.36%. Under `Cc1[nH]c2ccccc2c1C(=O)CSc1nc2ccccc2o1` stands -5.11%. Under `CCc1ccc2nc3nc(C)cc(C)c3c(O)c2c1` stands -1.52%. Under `COc1ccc(C2C=C(c3ccc(F)cc3)Nc3nc4ccccc4n32)c(OC)c1` (stereo not shown) stands 1.73%; under `CCOC(=O)c1oc2c(CN3CCCCC3C)c(O)ccc2c(=O)c1-c1ccccc1OC` (stereo not shown), 2.31%; under `Brc1ccc2[nH]c3c(c2c1)CCCC3NCc1ccccc1` (stereo not shown), 5.77%. Regarding `O=C1NCCN/C1=C\C(=O)c1ccc(Br)cc1`, the “% Inhibition @ 10 uM” value is recorded as -2.55%.

With `Cc1cc(OC(C)C(=O)Nc2cccnc2Cl)ccc1Cl` (stereo not shown), the “% Inhibition @ 10 uM” value is on record as 0.161%. Under `COc1ccc(C(=O)Nc2nc(-c3ccccc3)c(C)s2)c(OC)c1` stands 5.12%; under `CC1(C)CC(=O)C2=C(C1)OC1=C(C(=O)CC(C)(C)C1)C2(C)C`, 5.64%; under `Cc1cc(C)nc(N/C(=N\C(=O)C(C)N2C(=O)c3ccccc3C2=O)NCc2ccc(Cl)cc2)n1` (stereo not shown), -1.1%.
